From article PMC4336329 (PLoS ONE, 2015)
The whole screen tested about 310,000 compounds, of which about 2,200 (0.71%) showed an effect of 50% or more. The effect is printed as a negative number. The list shows a part of the results.

Each compound was assayed against human ether-à-go-go-related gene (hERG) potassium channel (human, UniProt Q12809) (assay: primary screen, population patch clamp on CHO cells stably expressing hERG).
Sequence of human ether-à-go-go-related gene (hERG) potassium channel (Q12809 whole entry, looked up): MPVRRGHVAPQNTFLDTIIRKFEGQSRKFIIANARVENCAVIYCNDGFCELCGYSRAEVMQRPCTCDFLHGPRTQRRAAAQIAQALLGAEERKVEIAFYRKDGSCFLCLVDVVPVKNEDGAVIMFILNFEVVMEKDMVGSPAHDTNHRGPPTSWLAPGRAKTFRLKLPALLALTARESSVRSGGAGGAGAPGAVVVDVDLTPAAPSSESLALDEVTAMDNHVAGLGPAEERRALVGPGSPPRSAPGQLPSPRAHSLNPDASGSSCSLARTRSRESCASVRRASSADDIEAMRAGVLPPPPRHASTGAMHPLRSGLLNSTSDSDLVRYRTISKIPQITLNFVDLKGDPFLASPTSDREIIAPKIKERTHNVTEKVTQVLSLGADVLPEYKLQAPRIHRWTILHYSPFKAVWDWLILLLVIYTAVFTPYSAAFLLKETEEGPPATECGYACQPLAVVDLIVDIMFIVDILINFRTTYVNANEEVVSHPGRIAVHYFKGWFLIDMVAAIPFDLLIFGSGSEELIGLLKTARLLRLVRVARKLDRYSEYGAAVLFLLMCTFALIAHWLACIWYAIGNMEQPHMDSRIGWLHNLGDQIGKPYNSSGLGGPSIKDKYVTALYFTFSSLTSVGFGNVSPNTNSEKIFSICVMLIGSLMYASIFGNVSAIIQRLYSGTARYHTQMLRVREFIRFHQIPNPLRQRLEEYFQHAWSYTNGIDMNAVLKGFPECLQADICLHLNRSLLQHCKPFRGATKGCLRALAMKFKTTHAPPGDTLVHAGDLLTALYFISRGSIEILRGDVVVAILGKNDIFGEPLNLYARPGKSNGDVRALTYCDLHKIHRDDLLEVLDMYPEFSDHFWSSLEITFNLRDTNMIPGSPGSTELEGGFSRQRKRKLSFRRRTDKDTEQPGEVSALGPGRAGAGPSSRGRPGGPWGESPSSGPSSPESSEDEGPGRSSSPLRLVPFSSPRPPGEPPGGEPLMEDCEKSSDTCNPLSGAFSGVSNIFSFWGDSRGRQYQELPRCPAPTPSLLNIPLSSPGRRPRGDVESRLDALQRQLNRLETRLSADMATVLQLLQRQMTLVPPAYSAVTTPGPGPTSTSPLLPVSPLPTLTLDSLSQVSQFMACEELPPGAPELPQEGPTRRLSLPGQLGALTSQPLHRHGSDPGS

Compound	hERG current change (%, negative = inhibition) at 1uM [%]
Cn1c(SCC(=O)NCC2CCCO2)nc2c(c1=O)SCC2 (stereo not shown)	11
O=C(CCNC(=O)Cn1ccc2ccccc2c1=O)NCCc1ccccc1Cl	2.53
COC(=O)c1cccc(NC(=S)N2CCOCC2)c1	26.8
C[C@H](NC(=O)[C@@H]1CSC2c3ccccc3C(=O)N21)C(=O)NC1CCCCC1 (stereo partly shown)	4.82
COc1cc(CN2CCN(C3CCC3)CC2CCO)cc(OC)c1 (stereo not shown)	9.74
O=C(CCC(=O)OCCCC(F)(F)C(F)(F)F)NC1CCCCC1	15.3
O=C(O)C(c1ccccc1)N1C(=O)/C(=C\c2ccc(-c3cccc(Cl)c3)o2)SC1=S (stereo not shown)	5.63
CCCN(CCC)c1ccc(/C=N/NC(=O)CN2CCOCC2)cc1	-6.07
Cc1ccccc1NC1C=CS(=O)(=O)C1 (stereo not shown)	14.8
C=CCC1(/C=N/O)CCOC(C)(C)C1 (stereo not shown)	15.5
COc1ccc(C2NC(=O)C(C#N)=C(S)N2c2cccc(C)c2)cc1OC (stereo not shown)	17.2
CN(C)S(=O)(=O)c1ccc(NC(=O)CCCNC(=O)c2ccc(Cl)cc2)cc1	7.96
COCCNC(=O)C1(C)Oc2ccccc2NC1=O (stereo not shown)	11.7
CCCN(CC(=O)Nc1ccccc1C)C(=O)c1nn(CC)c(=O)c2ccccc12	-1.4
Cc1ccccc1NC(=O)C(=O)c1cn(C)c2ccccc12	9.02
CCO[C@H]1OC(C(=O)N2CCN(C)CC2)=C[C@@H](c2ccc(Br)cc2)[C@@H]1CCCO	-8.05
CC1(C)CC(=O)C(C2C3=C(CC(C)(C)CC3=O)Oc3ccc4ccccc4c32)C(=O)C1 (stereo not shown)	7.73
Cc1c(C(=O)NCc2c(F)cc(F)cc2F)oc2ccc(S(=O)(=O)N3CCOCC3)cc12	16.8
COc1cc(CCC(=O)Nc2ccc(S(=O)(=O)N3CCCC3)cc2)cc(OC)c1OC	1.12
COc1cc(OC)cc(C(=O)NC(C(=O)NNC(=O)c2ccc(C)cc2)C(C)C)c1 (stereo not shown)	8.48
CCOc1cc(/C=N/NC(=O)c2ccccn2)ccc1OC(=O)c1ccc(F)cc1	-9.02
Cc1ccccc1-c1n[nH]c(=S)o1	13.8
Cn1c(=O)n(Cc2ccc(Cl)cc2)c2ccccc21	9.29
O=C(CSc1nnc(NC(=O)c2ccccc2F)s1)NCc1ccc(F)cc1	9.09
C(=N\n1c2ccccc2c2ccccc21)/c1ccccc1	9.08
